Data on 1 substance can be found in publication PMC3347801.

Common to all, as to test: co-IP; lysates of transfected HEK-293T cells (20 mM Tris/HCl pH 7.4, 150 mM NaCl, 1 mM EDTA, 1 % Triton X-100, 20 mM iodoacetamide) immunoprecipitated with anti-E2 serum R646, 2 h at 4 °C, protein A–Sepharose; reducing and non-reducing SDS-PAGE; blot with anti-E1 mAb A4 and anti-E2 mAbs AP33 and ALP98; grades are the estimated amount relative to WT
The target of assay [1] is HCV E2 glycoprotein insertion mutant in611 (hepatitis C virus genotype 1a strain H77c) (UniProt P27958).
The target in assay [2] is HCV E2 glycoprotein insertion mutant in549 (hepatitis C virus genotype 1a strain H77c) (UniProt P27958).
Assay [3] concerns the target HCV E2 glycoprotein insertion mutant in422 (hepatitis C virus genotype 1a strain H77c) (UniProt P27958).
For assay [4], the target named is HCV E2 glycoprotein insertion mutant in540 (hepatitis C virus genotype 1a strain H77c) (UniProt P27958).
Assay [5] deals with HCV envelope glycoprotein E2, wild type (genotype 1a strain H77c) (hepatitis C virus genotype 1a strain H77c) (UniProt P27958).
Assay [6] has as its target HCV E2 glycoprotein insertion mutant in533 (hepatitis C virus genotype 1a strain H77c) (UniProt P27958).
Assay [7] has as its target HCV E2 glycoprotein insertion mutant in424 (hepatitis C virus genotype 1a strain H77c) (UniProt P27958).
Assay [8] concerns the target HCV E2 glycoprotein insertion mutant in587 (hepatitis C virus genotype 1a strain H77c) (UniProt P27958).
In assay [9] the target is HCV E2 glycoprotein insertion mutant in692 (hepatitis C virus genotype 1a strain H77c) (UniProt P27958).
Assay [10] has as its target HCV E2 glycoprotein insertion mutant in456 (hepatitis C virus genotype 1a strain H77c) (UniProt P27958).
In assay [11] the target is HCV E2 glycoprotein insertion mutant in577 (hepatitis C virus genotype 1a strain H77c) (UniProt P27958).

These are yes or no findings as the source states them, for the method shown. Binding seen in cells or lysates may run through a third protein. Some entries that bind do so weakly or less than the wild type.

For the substance “HCV envelope glycoprotein E1, wild type (genotype 1a strain H77c) (from UniProt P27958 192-383)”, the binding entry in assay [1], in assay [2], in assay [3], in assay [4], in assay [5] and in assay [6] was “binds” each time. The binding entry in assay [7] is “binds”; in [8] it was “binds”; in [9] it was “no binding”; in assay [10], “binds”; in assay [11], “binds”.
